This note sets out measurements from the supplement of paper PMC4967469.

The IC50 comes from the fitted curve, where viability falls to half of the control; a fit beyond the top or the lowest dose is shown as a bound at that dose. For AUC the same curve is integrated over the 256-fold range of doses and scaled to a fraction: 1 means no effect, lower means more sensitive. Any top dose called inferred is not printed in the source and was worked back from the curve model.

Compound in the experiment: Cc1ccc(-c2c(C(=O)CF)n(CCCO)c3ncnc(N)c23)cc1 [FMK]
Kind of experiment: Viability of human cancer cell lines after 72 h of drug (GDSC screen). The following applies: top dose inferred. As to the method:
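Human cancer cell lines in 384-well plates, medium with 10% serum, drug for 72 h over a 256-fold dose range (nine 2-fold or five 4-fold steps up to the top dose). Adherent lines were fixed and stained with the nucleic acid dye Syto60, suspension lines read with resazurin; signal relative to control wells, capped at 0 and 100%. One two-parameter sigmoid per drug and line, fitted in a mixed model over all curves with the slope shared within a line.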
Broadly, the IC50 is the concentration that inhibits the measured activity by half. Take “G-292 Clone A141B1 (osteosarcoma, adherent, top dose 20 µM)”: the AUC came out at 0.942 and the IC50 was above 20 µM.

As to “G-361 (melanoma, adherent, top dose 20 µM)”, the AUC was 0.947 and the IC50 is above 20 µM.

Regarding “G-401 (kidney, adherent, top dose 20 µM)”, the AUC is 0.964 and the IC50 was above 20 µM.

Take “G-402 (soft tissue, adherent, top dose 20 µM)”: the AUC was found to be 0.957 and the IC50 was above 20 µM.

Turning to “G-MEL (melanoma, adherent, top dose 20 µM)”, the AUC came to 0.952 and the IC50 was above 20 µM.

Turning to “GAK (melanoma, adherent, top dose 20 µM)”, the AUC is 0.989 and the IC50 is above 20 µM.

With GAMG (glioma, adherent, top dose 20 µM), the AUC was found to be 0.975 and the IC50 is above 20 µM.

Regarding GB-1 (glioma, adherent, top dose 20 µM), the AUC came out at 0.968 and the IC50 was above 20 µM.

For the cell line “GCIY (stomach, adherent, top dose 20 µM)”, the AUC was 0.983 and the IC50 was above 20 µM.

Consider “GDM-1 (acute myeloid leukaemia, suspension, top dose 20 µM)”, for which the AUC is 0.953 and the IC50 is above 20 µM.

As to GI-1 (glioma, adherent, top dose 20 µM), the AUC amounted to 0.981 and the IC50 was above 20 µM.

As to “GI-ME-N (neuroblastoma, adherent, top dose 20 µM)”, the AUC was determined as 0.889 and the IC50 was above 20 µM.

On to “GMS-10 (glioma, adherent, top dose 20 µM)”, for which the AUC was found to be 0.983 and the IC50 is above 20 µM.

Regarding “GP5d (large intestine, adherent, top dose 20 µM)”, the AUC was 0.986 and the IC50 is above 20 µM.

Consider “GR-ST (lymphoblastic leukaemia, suspension, top dose 20 µM)”, for which the AUC was determined as 0.963 and the IC50 was above 20 µM.

Consider “GRANTA-519 (B-cell lymphoma, suspension, top dose 20 µM)”, for which the AUC came out at 0.991 and the IC50 is above 20 µM.

As to “GT3TKB (stomach, adherent, top dose 20 µM)”, the AUC turned out to be 0.99 and the IC50 is above 20 µM.

Consider H4 (glioma, adherent, top dose 20 µM), for which the AUC stood at 0.98 and the IC50 is above 20 µM.

In the case of “H9 (lymphoid neoplasm, suspension, top dose 20 µM)”, the AUC came to 0.968 and the IC50 was above 20 µM.

For the cell line “H2369 (mesothelioma, adherent, top dose 20 µM)”, the AUC is 0.979 and the IC50 is above 20 µM.

For the cell line “H2373 (mesothelioma, adherent, top dose 20 µM)”, the AUC turned out to be 0.98 and the IC50 was above 20 µM.

Turning to “H2461 (mesothelioma, adherent, top dose 20 µM)”, the AUC amounted to 0.975 and the IC50 is above 20 µM.

As to “H2731 (mesothelioma, adherent, top dose 20 µM)”, the AUC worked out at 0.984 and the IC50 was above 20 µM.

With “H2795 (mesothelioma, adherent, top dose 10.24 µM)”, the AUC stood at 0.982 and the IC50 was above 10.2 µM.

On to “H2818 (mesothelioma, adherent, top dose 10.24 µM)”, for which the AUC amounted to 0.988 and the IC50 was above 10.2 µM.

Consider “H3118 (head and neck, adherent, top dose 20 µM)”, for which the AUC is 0.933 and the IC50 was above 20 µM.

In the case of “H3255 (lung adenocarcinoma, adherent, top dose 20 µM)”, the AUC was found to be 0.981 and the IC50 was above 20 µM.

On to “HA7-RCC (kidney, adherent, top dose 20 µM)”, for which the AUC is 0.983 and the IC50 is above 20 µM.

As to “HAL-01 (lymphoblastic leukaemia, suspension, top dose 20 µM)”, the AUC stood at 0.961 and the IC50 is above 20 µM.

For “HARA (lung squamous cell carcinoma, adherent, top dose 20 µM)”, the AUC amounted to 0.967 and the IC50 was above 20 µM.

With “HC-1 (hairy cell leukaemia, suspension, top dose 20 µM)”, the AUC was determined as 0.951 and the IC50 was above 20 µM.

As for “HCC38 (breast, adherent, top dose 20 µM)”, the AUC is 0.968 and the IC50 is above 20 µM.

For “HCC70 (breast, adherent, top dose 20 µM)”, the AUC was 0.988 and the IC50 was above 20 µM.

Regarding “HCC202 (breast, adherent, top dose 20 µM)”, the AUC is 0.959 and the IC50 is above 20 µM.

Turning to “HCC1143 (breast, adherent, top dose 20 µM)”, the AUC amounted to 0.955 and the IC50 is above 20 µM.

Consider “HCC1187 (breast, suspension, top dose 20 µM)”, for which the AUC turned out to be 0.982 and the IC50 was above 20 µM.

Turning to “HCC1395 (breast, adherent, top dose 20 µM)”, the AUC came to 0.979 and the IC50 is above 20 µM.

In the case of “HCC1419 (breast, adherent, top dose 20 µM)”, the AUC came out at 0.966 and the IC50 is above 20 µM.

Turning to “HCC1428 (breast, adherent, top dose 20 µM)”, the AUC was 0.986 and the IC50 is above 20 µM.

As to “HCC1500 (breast, adherent, top dose 10.24 µM)”, the AUC turned out to be 0.988 and the IC50 is above 10.2 µM.

Consider “HCC1569 (breast, adherent, top dose 20 µM)”, for which the AUC came out at 0.967 and the IC50 is above 20 µM.

Consider “HCC1599 (breast, suspension, top dose 20 µM)”, for which the AUC came out at 0.981 and the IC50 is above 20 µM.

“HCC1806 (breast, adherent, top dose 20 µM)”: the AUC was determined as 0.989 and the IC50 is above 20 µM.

With “HCC1937 (breast, adherent, top dose 20 µM)”, the AUC is 0.982 and the IC50 is above 20 µM.

With “HCC1954 (breast, adherent, top dose 20 µM)”, the AUC was 0.945 and the concentration for half-maximal inhibition (IC50) is above 20 µM.

Turning to “HCC2157 (breast, suspension, top dose 20 µM)”, the AUC came out at 0.987 and the IC50 is above 20 µM.

As for “HCC2218 (breast, suspension, top dose 20 µM)”, the AUC was found to be 0.972 and the IC50 is above 20 µM.

Take “HCC2998 (large intestine, adherent, top dose 20 µM)”: the AUC was found to be 0.987 and the half-maximal inhibitory concentration (IC50) was above 20 µM.

For the cell line “HCC-15 (lung squamous cell carcinoma, adherent, top dose 20 µM)”, the AUC was found to be 0.966 and the IC50 was above 20 µM.

In the case of “HCC-33 (small cell lung carcinoma, adherent, top dose 20 µM)”, the AUC worked out at 0.966 and the IC50 is above 20 µM.

Turning to “HCC-44 (lung adenocarcinoma, adherent, top dose 20 µM)”, the AUC is 0.975 and the IC50 was above 20 µM.

Regarding “HCC-56 (large intestine, adherent, top dose 20 µM)”, the AUC was 0.979 and the IC50 was above 20 µM.

As for “HCC-78 (lung adenocarcinoma, adherent, top dose 20 µM)”, the AUC stood at 0.979 and the IC50 is above 20 µM.

For the cell line “HCC-827 (lung adenocarcinoma, adherent, top dose 20 µM)”, the AUC is 0.985 and the IC50 was above 20 µM.

With “HCE-4 (oesophagus, adherent, top dose 20 µM)”, the AUC is 0.989 and the IC50 is above 20 µM.

Regarding “HCT-15 (large intestine, adherent, top dose 20 µM)”, the AUC worked out at 0.978 and the IC50 was above 20 µM.

Consider “HCT-116 (large intestine, adherent, top dose 20 µM)”, for which the AUC came out at 0.978 and the IC50 is above 20 µM.

Turning to “HD-MY-Z (Hodgkin lymphoma, adherent, top dose 20 µM)”, the AUC came to 0.976 and the IC50 is above 20 µM.

In the case of “HDLM-2 (Hodgkin lymphoma, suspension, top dose 20 µM)”, the AUC was 0.966 and the IC50 is above 20 µM.

As to “HDQ-P1 (breast, adherent, top dose 20 µM)”, the AUC worked out at 0.979 and the IC50 is above 20 µM.

For “HEC-1 (endometrium, adherent, top dose 20 µM)”, the AUC is 0.989 and the IC50 is above 20 µM.

Take “HEL (acute myeloid leukaemia, semi-adherent, top dose 20 µM)”: the AUC came out at 0.989 and the concentration for half-maximal inhibition (IC50) is above 20 µM.

For “HGC-27 (stomach, adherent, top dose 20 µM)”, the AUC worked out at 0.99 and the IC50 is above 20 µM.

As to “HH (T-cell leukaemia, suspension, top dose 20 µM)”, the AUC came out at 0.959 and the IC50 is above 20 µM.

Consider “HL-60 (acute myeloid leukaemia, suspension, top dose 20 µM)”, for which the AUC came out at 0.977 and the half-inhibitory concentration (IC50) was above 20 µM.

In the case of HLE (liver, adherent, top dose 20 µM), the AUC turned out to be 0.989 and the IC50 is above 20 µM.

“HMV-II (melanoma, adherent, top dose 20 µM)”: the AUC amounted to 0.933 and the IC50 was above 20 µM.

“HN (head and neck, adherent, top dose 20 µM)”: the AUC stood at 0.987 and the IC50 is above 20 µM.
